Source: the RNAGym collection of RNA variant scans (doi:10.1073/pnas.2313332121)
Variants at the background level are over-represented here.

B1: TPR 5TU (parent)
chain: GGAUCUUCUCGAUCUAACAAAAAAGACAAAUCUGCCACAAAGCUUGAGAGCAUCUUCGGAUGCAGAGGCGGCAGCCUUCGGUGGCGCGAUAGCGCCAACGUUCUCAACUAUGACACGCAAAACGCGUGCUCCGUUGAAUGGAGUUUAUCAUG

Variants of: B1
Assay: polymerase ribozyme fitness, log enrichment relative to wild type (log ratio); higher = more active; in vitro selection for triplet polymerase activity
How it was run: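 To select mutant libraries of each subunit of a heterodimeric triplet polymerase ribozyme, built by PCR and transcribed, each was annealed with a biotinylated primer, partner subunit and triplets, then incubated frozen at −7 °C. Extended constructs were gel-excised, captured on streptavidin beads and amplified by RT-PCR, in one round carried out in triplicate. Illumina sequencing of input and output libraries kept genotypes with ≥10 input reads and ≥1 read per output. Fitness is the base-2 logarithm of genotype enrichment relative to wild-type enrichment, from inverse-variance-weighted replicate averages.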

Row | Variant | polymerase ribozyme fitness (log ratio)
1 | C96U C125A | -0.0844
2 | C96U C125U | -0.382
3 | C96U C132A U134C A142C A150U | ≤ -4.2
4 | C96U G124A | -0.382
5 | C96U G124U | -0.372
6 | C96U G128U U146C | -3.35
7 | C96U U104G | -1.59
8 | C96U U130A U148C | ≤ -4.2
9 | A97C A119G | 0.72
10 | A97G G133A | -3.61
11 | A97G U102G | ≤ -4.2
12 | A97U C99G C108G | ≤ -4.2
13 | A97U C132A | -2.65
14 | A97U U104G | -0.956
15 | A98G U111G G133C G136C | ≤ -4.2
16 | A98G U127C | -3.01
17 | A98U A107U C125A A147G | ≤ -4.2
18 | A98U A142U G143U A150U | ≤ -4.2
19 | A98U A150C | -2.82
20 | A98U C99G C108U A110U A122U G141C U146G | ≤ -4.2
21 | A98U C99U A107G | ≤ -4.2
22 | A98U C116A G141U | ≤ -4.2
23 | A98U C116G C123U A137C | ≤ -4.2

Row | Variant | polymerase ribozyme fitness (log ratio)
24 | A98U C118U U144G | 0.244
25 | A98U G136U | -2.64
26 | C99A A107G | ≤ -4.2
27 | C99A A113G G141C | ≤ -4.2
28 | C99A A120C U148G | ≤ -4.2
29 | C99A G126A G140C | ≤ -4.2
30 | C99A G128A | ≤ -4.2
31 | C99A G143A | -2.02
32 | C99A U127G G143A U148G | ≤ -4.2
33 | C99A U135A | -2.77
34 | C99G A107U | ≤ -4.2
35 | C99G A113C U135C | ≤ -4.2
36 | C99G A115C G140U U148G | ≤ -4.2
37 | C99G U146G | -1.32
38 | C99U A107G | -4.16
39 | C99U A115C | -1.19
40 | C99U G126U | -0.0913
41 | C99U G141A | -0.231
42 | C99U G143C | -2.66
43 | C99U U145G | -2.09
44 | G100A A119G | ≤ -4.2
45 | G100U A121U A142G U144A U148G | ≤ -4.2
46 | G100U A142C | -4.17

Row | Variant | polymerase ribozyme fitness (log ratio)
47 | U101A | 0.177
48 | U101A A115U G141A | -2.17
49 | U101A A138C U151C | ≤ -4.2
50 | U101C A106C G126A C149G | ≤ -4.2
51 | U101C C131A U146C C149G | ≤ -4.2
52 | U101G | 0.557
53 | U101G A120G | -0.0391
54 | U101G A138U | -3.25
55 | U101G C105A | ≤ -4.2
56 | U101G C105A C116U U134C | ≤ -4.2
57 | U102A | -0.854
58 | U102A A113C | -3.86
59 | U102A C114G U145G | ≤ -4.2
60 | U102A C114U A115G A120U | -3.62
61 | U102A G128U A138U | ≤ -4.2
62 | U102A U109G G117A | ≤ -4.2
63 | U102C | -0.787
64 | U102G | -2.51
65 | U102G A107G G112U | ≤ -4.2
66 | U102G A113G G133U | ≤ -4.2
67 | U102G G141C | -3.94
68 | U102G U127C | -4.17
69 | C103A A107C A142C | ≤ -4.2

Row | Variant | polymerase ribozyme fitness (log ratio)
70 | C103A C116U G128A C149A | ≤ -4.2
71 | C103A G140U G143U | ≤ -4.2
72 | C103A U146C | -1.49
73 | C103G G143U | ≤ -4.2
74 | C103G U130A | -4.04
75 | C103U G140C | ≤ -4.2
76 | U104A C114U A138C | ≤ -4.2
77 | U104G A113U U127A G141A | ≤ -4.2
78 | U104G A142G G152U | -3.73
79 | U104G C118A A122C | -2.35
80 | C105A G140U | -4.11
81 | C105G C149G A150C | ≤ -4.2
82 | C105G G141C | -2.56
83 | C105U A120G A122C | 0.479
84 | C105U A138U | -2.82
85 | C105U G124U | -0.374
86 | A106C G141C C149A | ≤ -4.2
87 | A106G A113U U135G | ≤ -4.2
88 | A106U U135A A150U | -1.22
89 | A107C A142C | -4.05
90 | A107C C129A U145C | ≤ -4.2
91 | A107C G136U | ≤ -4.2
92 | A107C U146G U151G | ≤ -4.2

Row | Variant | polymerase ribozyme fitness (log ratio)
93 | A107G A113C | ≤ -4.2
94 | A107G C108G G143U | ≤ -4.2
95 | A107G C116A A120G | ≤ -4.2
96 | A107G C132G G140C U148C | ≤ -4.2
97 | A107G G140U U151A | ≤ -4.2
98 | A107G G141C | -3.86
99 | C108A A115G G124C G133U | ≤ -4.2
100 | C108A C116G G128A U130G | ≤ -4.2
101 | C108A G126U | ≤ -4.2
102 | C108G G143C A147C | ≤ -4.2
103 | C108G U144A | ≤ -4.2
104 | C108U C114U | -4.06
105 | C108U C116U A142U U151A | ≤ -4.2
106 | C108U G133U | -3.96
107 | C108U G136U | -3.41
108 | C108U G143C | ≤ -4.2
109 | C108U U135C U145G | ≤ -4.2
110 | U109A A137C A150G | ≤ -4.2
111 | U109A G124A G140C | ≤ -4.2
112 | U109G A110C | ≤ -4.2
113 | U109G A115U C125A | -4.05
114 | U109G C125U C129U | -4.06
115 | U109G G124C C131G | ≤ -4.2
